Data published in PubChem BioAssay (NCATS).
Inconclusive means that the source gave no clear call. Such entries were picked first, then a sample of the others. For part of these data: Potencies of inconclusive entries are doubtful fits and often do not repeat. Activity calls are given as the source filed them. The call rests on the fitted dose curve; in most records, active means well fitted curve in the direction sought with a large enough effect; inconclusive means small, poorly fitted or top-dose-only effect, or another doubt; inactive means no such curve, though single readings can be large; an effect the other way counts as inactive or inconclusive.

Legend:
[1] = Tertiary RLuc qRT-PCR qHTS assay for Zika virus inhibitors (AID 1347169); further: potency means the concentration at half of the fitted maximal effect; nearly all actives have a fitted effect of over 55% in size
In short: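 Vero cells (1,000 per well) plated overnight at 37 degrees C, treated with compound in DMSO, then infected with recombinant ZIKV-RLuc (Cambodian) at MOI 1-2 for 48-72 hrs. Live-cell Renilla luciferase substrate added; luminescence read after 1-1.5 hrs.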

[2] = OV-KATE Cancer Cell Toxicity qHTS against the NCATS CANVASS Library (AID 1347345); further: potency means the concentration at half of the fitted maximal effect
In short: (§1)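 1000 cells/well seeded and rested 4 h at 37 °C before pin transfer of compounds in an 11-pnt series. Exposure 72 h at 37 °C/5% CO2; viability by CellTiter-Glo luminescence after 15 min at room temperature.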

[3] = Panc-1005 Cancer Cell Toxicity qHTS against the NCATS CANVASS Library (AID 1347349); further: potency means the concentration at half of the fitted maximal effect; nearly all actives have a fitted effect of over 60% in size
In short: as §1

[4] = SW1088 Cancer Cell Toxicity qHTS against the NCATS CANVASS Library (AID 1347350); further: potency means the concentration at half of the fitted maximal effect; nearly all actives have a fitted effect of over 75% in size
In short: as §1

[5] = U-118MG Cancer Cell Toxicity qHTS against the NCATS CANVASS Library (AID 1347351); further: potency means the concentration at half of the fitted maximal effect
In short: as §1

[6] = UWB1.289-WTBRCA1 Cancer Cell Toxicity qHTS against the NCATS CANVASS Library (AID 1347354); further: potency means the concentration at half of the fitted maximal effect
In short: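 Using an ATP-based luminescent reagent after three days of treatment, toxicity is scored across an eleven-concentration range in wells holding 1000 cells each.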

[7] = KB-8-5-11 Cancer Cell Toxicity qHTS against the NCATS CANVASS Library (AID 1347364); conditions: activity change, negative = toxicity: at 46.1 µM (top of the series); further: potency means the concentration at half of the fitted maximal effect; nearly all actives have a fitted effect of over 75% in size
In short: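 Luminescent ATP signal (CellTiter-Glo, 10 min at room temperature) measured cell survival of KB-8-5-11 after 72 hr compound treatment. For confirmation, the cells were also grown with 1uM tariquidar.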

[8] = KB-3-1 Cancer Cell Toxicity qHTS against the NCATS CANVASS Library (AID 1347366); further: potency means the concentration at half of the fitted maximal effect; nearly all actives have a fitted effect of over 75% in size
In short: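 KB-3-1 cells (500 cells/well) in DMEM + 10% FBS were treated with compounds for 72 hr at 37C, 5% CO2. Viability was read as CellTiter-Glo luminescence after 10 minutes at room temperature.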

[9] = MCF7 Cancer Cell Toxicity qHTS against the NCATS CANVASS Library (AID 1347369); conditions: activity change, negative = cytotoxicity: at 46 µM (top of the series); further: potency means the concentration at half of the fitted maximal effect
In short: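 MCF7, 500 cells/well; cpds 11-pt qHTS; 72 hr, 37C/5% CO2; CellTiterGlo ATP luminescence.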

[10] = qHTS for ATAD5 Antagonist screened against the NCATS CANVASS Library (AID 1347370); further: potency means the concentration at half of the fitted maximal effect; nearly all actives have a fitted effect of over 65% in size
In short: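 HEK293T-ATAD5 luc reporter, 2000 cells/well; 5hr attach; cpd + 10 uM 5-FUrd; 16hr 37C, 5% CO2. Readouts: CellTiter-Fluor fluorescence (1hr), then Amplite luciferase luminescence (30min RT).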

[11] = J3T Cancer Cell Toxicity qHTS against the NCATS CANVASS Library (AID 1347371); further: potency means the concentration at half of the fitted maximal effect
In short: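 ATP-based cytotoxicity in canine J3T cells: 72 hr exposure at 37C, 11-point titration, CellTiterGlo luminescent detection.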

[12] = qHTS for Antimalaria activity screened against the NCATS CANVASS Library (AID 1347380); further: nearly all actives have a fitted effect of over 40% in size; further: potency means the concentration at half of the fitted maximal effect
In short: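 Measures proliferation or cytotoxicity against Dd2 blood stages in 72 h cultures, 11-point qHTS dosing, with SYBR Green fluorescence as read-out; dihydroartemisinin titration served as control.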

[13] = Cytotoxicity qHTS for assessment of Hepg2 cells membrane integrity screened against the NCATS CANVASS Library (AID 1347387); further: potency means the concentration at half of the fitted maximal effect
In short: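 Membrane damage in HepG2 monolayers was estimated from released LDH, measured with CytoTox-ONE (ex 560/em 590 nm), after 5 hr treatment across 0.59 nM - 46 uM final.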

[14] = qHTS for Activators of p53 Stress Response Pathway screened against the NCATS CANVASS Library (AID 1347388); further: potency means the concentration at half of the fitted maximal effect
In short: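 p53RE-bla HCT-116 cells (4000/well) were pre-incubated for 5 h, then treated with compound (11 points) for 16 h at 37C. After 2 h with CCF4, the 460/530 nm ratio gave reporter activation; CellTiter-Glo measured viability.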

[15] = qHTS for activators of dead-cell proteases activity screened against the NCATS CANVASS Library (AID 1347392);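 further: luminescence from protease leaking out of membrane-damaged cells cleaving impermeant substrate; potency means the concentration at half of the fitted maximal effect; rising signal means more cytotoxicity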
In short: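 HepG2, 2000 cells/well, 18 h attach; cpd 11-pt, 5 h 37C 5% CO2; CytoTox-Glo (AAF-aminoluciferin) 15 min RT; luminescence read.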

[16] = Vero-766 cells viability qHTS against the NCATS CANVASS Library: Counterscreen for Zika virus inhibition assay (AID 1347394); conditions: Vero 766 viability, CellTiter-Glo luminescence, 72 h; activity change, negative = cytotoxic: at 46.1 µM (top of the series); further: potency means the concentration at half of the fitted maximal effect; nearly all actives have a fitted effect of over 60% in size
In short: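 Uninfected Vero 766 (African green monkey) cells, 1000/well, attached overnight, then exposed 72 h at 37C to compounds (11-point qHTS). Viability read by CellTiter-Glo luminescence; media-only wells served as 100% inhibition.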

[17] = Primary qHTS for inhibitors of nuclear receptor binding SET domain protein 2 (NSD2) in an RCH-ACV wild type WT cells (2C) (AID 1645877); further: potency means the concentration at half of the fitted maximal effect; nearly all actives have a fitted effect of over 70% in size
[18] = HPAF-II Cancer Cell Toxicity qHTS against the NCATS CANVASS Library (AID 1347346); further: potency means the concentration at half of the fitted maximal effect; nearly all actives have a fitted effect of over 55% in size
In short: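 Using 1000 HPAF-II cells per well, we titrated compounds over 11 concentrations for 72 h at 37 degrees C/5% CO2, with bortezomib as control. Cell survival was quantified by CellTiter-Glo luminescence.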

[19] = UWB1.289 Cancer Cell Toxicity qHTS against the NCATS CANVASS Library (AID 1347347); further: potency means the concentration at half of the fitted maximal effect; nearly all actives have a fitted effect of over 60% in size
In short: as §1

[20] = A2780 Cisplatin Sensitive Ovarian Cancer Cell Toxicity qHTS against the NCATS CANVASS Library (AID 1347353); further: potency means the concentration at half of the fitted maximal effect; nearly all actives have a fitted effect of over 60% in size
In short: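 Quantitative HTS format: eleven compound concentrations applied to pre-seeded cells, 72 h incubation at 37 °C, then ATP detection by luminescence.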

[21] = SDT Cancer Cell Toxicity qHTS against the NCATS CANVASS Library (AID 1347365)
In short: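 Canine SDT glioma cell toxicity was scored by ATP-dependent luminescence after a 72 hr incubation with an 11-point compound series.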

[22] = G06 Cancer Cell Toxicity qHTS against the NCATS CANVASS Library (AID 1347368); further: nearly all actives have a fitted effect of over 60% in size
In short: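 Quantitative HTS in G06 cells (dog glioma): 72 hr treatment, 11 concentrations, then ATP-based luminescent viability readout; bortezomib 0.1 nM–4.6 uM final as reference.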

[23] = DH5-alpha competent E. coli microbial cell viability qHTS against the NCATS CANVASS Library (AID 1347377); conditions: viability signal change, negative = cytotoxic: at 46.1 µM (top of the series); further: potency means the concentration at half of the fitted maximal effect
In short: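 Overnight incubation at 37C, 5% CO2 of E. coli DH5-alpha (diluted to 0.2 OD) with compounds precedes BacTiter-Glo addition. Luminescence, acquired after 20 min at room temperature, reflects viable-cell ATP.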

[24] = qHTS for inhibitors of ER calcium dysfunction: SERCaMP assay screened against the NCATS CANVASS Library (AID 1347393); conditions: SH-SY5Y GLuc-SERCaMP secretion, thapsigargin, luminescence; series mostly up to 76.6 µM;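 further: lower secreted reporter signal means inhibitor of ER calcium depletion; nearly all actives have a fitted effect of over 40% in size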
In short: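 SH-SY5Y GLuc-SERCaMP, 1000 cells/well, 4 h attach; cpd 16 h, 37C/5% CO2; thapsigargin (added as 6x 600 nM) 4 h; coelenterazine; luminescence. Reduced reporter release = ER Ca stabilization.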

[25] = qHTS for inhibitors of Wild type Zika virus screened against the NCATS CANVASS Library (AID 1347396); further: potency means the concentration at half of the fitted maximal effect
In short: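 Vero 766 (African green monkey) cells, 1000 per well, attached overnight, then compounds were added in an 11-point series before wild-type Zika virus infection. After 72 h at 37C, cell viability was read as CellTiter Glo luminescence.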

Measured: Potency
Tags describe the fitted curve by direction and shape.

CCOc1ccc(C2C(=O)N(C3CCCCCC3)CC(=O)N2CCc2ccc(Cl)cc2)cc1OC (stereo not given)
active: [1] 18.6 µM

C=C1C(=O)O[C@H]2[C@H]1CC/C(C)=C/CC[C@@]1(C)O[C@@H]21
active: [2] 6.66 µM | [3] 6.68 µM | [5] 6.68 µM | [7] 16.6 µM | [9] 7.39 µM | [11] 16.6 µM | [16] 29.5 µM
inconclusive: [4] 29.8 µM [cytotoxic, single point] | [6] 29.8 µM [cytotoxic, single point] | [8] 33.2 µM [cytotoxic, single point] | [10] 16.6 µM [inhibitor, partial curve, poor fit] | [12] 0.0149 µM [cytotoxic, full curve, poor fit] | [13] 23.4 µM [rising, single point] | [14] 16.6 µM [activator, partial curve] | [15] 33.1 µM [activator, single point] | [17] 23 µM [inhibitor, single point]

C/C=C(/C)c1c(Cl)c(O)c(C)c2c1Oc1c(Cl)c(O)c(Cl)c(C)c1C(=O)O2
active: [4] 18.8 µM
inconclusive: [18] 11.9 µM [cytotoxic, partial curve] | [19] 11.8 µM [cytotoxic, partial curve] | [20] 23.5 µM [cytotoxic, single point] | [7] 14.8 µM [cytotoxic, partial curve] | [21] 4.18 µM [cytotoxic, partial curve] | [11] 14.8 µM [cytotoxic, partial curve, poor fit] | [23] 23.4 µM [rising, single point] | [14] 18.6 µM [activator, partial curve] | [25] 2.93 µM [inhibitor, full curve]
inactive: [22] | [12] | [24]
